# This is one part of the list. Most values come without repeats; read them as rough.
# How the values were obtained:
# Test in all cases: cell count relative to DMSO control; melanoma cells; higher = more viable cells
# Details in all cases: library dose: low library concentration; 72 h; first compound 0.4 µM
# COLO792 = test system: COLO792
# COLO800 = test system: COLO800
# COLO829 = test system: COLO829
# G361 = test system: G361
# IPC-298 = test system: IPC-298
# IST-MEL1 = test system: IST-MEL1
# LB2518-MEL = test system: LB2518-MEL
# LOXIMVI = test system: LOXIMVI
# MEL-HO = test system: MEL-HO
# MZ2-MEL = test system: MZ2-MEL
# MeWo = test system: MeWo
# RPMI7951 = test system: RPMI7951
# RVH-421 = test system: RVH-421
# SkMel28 = test system: SkMel28
# SkMel2 = test system: SkMel2
# SkMel30 = test system: SkMel30
# SkMel5 = test system: SkMel5
# UACC257 = test system: UACC257
# UACC62 = test system: UACC62
# 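Also: cell number obtained by counting DAPI-stained nuclei in high-throughput microscope images with image analysis software, screen run in 1,536-well plates.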
SMILES,cell count (COLO792),cell count (COLO800),cell count (COLO829),cell count (G361),cell count (IPC-298),cell count (IST-MEL1),cell count (LB2518-MEL),cell count (LOXIMVI),cell count (MEL-HO),cell count (MZ2-MEL),cell count (MeWo),cell count (RPMI7951),cell count (RVH-421),cell count (SkMel28),cell count (SkMel2),cell count (SkMel30),cell count (SkMel5),cell count (UACC257),cell count (UACC62)
C[C@@H](N)c1ccc(C(=O)Nc2ccnc3[nH]ccc23)cc1 + Cn1cc(/C=C2\C(=O)Nc3cccnc32)c2ccccc21 [GW441756] (partner dose 0.4 µM),94.7%,96.7%,111%,103%,101%,97.5%,93%,87.5%,90.4%,74.2%,72.9%,78.4%,73.7%,68.2%,103%,111%,32.3%,53.8%,71%
Cn1sc(=O)n(Cc2ccccc2)c1=O + N#Cc1c(O)c2c(-c3ccc(-c4ccccc4O)cc3)csc2[nH]c1=O [A769662] (partner dose 2 µM),89.6%,187%,123%,102%,107%,99.4%,106%,98.5%,86.2%,103%,101%,107%,81.2%,101%,95.4%,99.2%,95.7%,82.9%,90.9%
CCCCCCCCCCCCCCCCCCOP(=O)([O-])OC1CC[N+](C)(C)CC1 [Perifosine] + COc1cc2c(Oc3ccc4[nH]c(C)cc4c3F)ncnc2cc1OCCCN1CCCC1 [cediranib] (partner dose 0.4 µM),93.1%,108%,97.4%,120%,101%,102%,89.1%,125%,94.6%,109%,105%,60.8%,118%,86.2%,105%,99.2%,97.2%,93.6%,99.2%
Cn1sc(=O)n(Cc2ccccc2)c1=O + CO[C@@H]1[C@H](N(C)C(=O)c2ccccc2)C[C@H]2O[C@]1(C)n1c3ccccc3c3c4c(c5c6ccccc6n2c5c31)C(=O)NC4 [Midostaurin] (partner dose 0.08 µM),86.8%,102%,105%,84.5%,95.7%,89.8%,97.4%,70.7%,102%,104%,90.3%,87.5%,122%,109%,84%,103%,87.5%,84.1%,90.9%
CCCCCCCCCCCCCCCCCCOP(=O)([O-])OC1CC[N+](C)(C)CC1 [Perifosine] + Cn1cncc1[C@@](N)(c1ccc(Cl)cc1)c1ccc2c(c1)c(-c1cccc(Cl)c1)cc(=O)n2C [tipifarnib] (partner dose 0.01 µM),85.2%,93.9%,94.9%,103%,89.1%,92.8%,–,128%,90.4%,–,87.5%,36.6%,80.6%,74.5%,74.5%,89.6%,111%,83.5%,77.4%
CCCCCCCCCCCCCCCCCCOP(=O)([O-])OC1CC[N+](C)(C)CC1 [Perifosine] + Cc1cc(N2CCOCC2)cc2[nH]c(-c3c(NC[C@@H](O)c4cccc(Cl)c4)cc[nH]c3=O)nc12 [BMS536924] (partner dose 0.2 µM),84.4%,70.7%,111%,91.7%,99.5%,99.3%,114%,106%,103%,102%,90.9%,45.4%,100%,84.2%,89.5%,74.6%,92.6%,118%,86.1%
C[C@@H](N)c1ccc(C(=O)Nc2ccnc3[nH]ccc23)cc1 + COc1cc2c(Oc3ccc4[nH]c(C)cc4c3F)ncnc2cc1OCCCN1CCCC1 [cediranib] (partner dose 0.4 µM),76.7%,80.4%,123%,98.6%,102%,103%,118%,66.6%,84.6%,84.2%,62.3%,83.1%,73%,64%,108%,110%,67.2%,58.3%,81.4%
Cn1sc(=O)n(Cc2ccccc2)c1=O + OCCn1cc(-c2cnc3nnn(Cc4ccc5ncccc5c4)c3n2)cn1 [PF04217903] (partner dose 1 µM),92.2%,100%,107%,117%,102%,109%,108%,85.2%,89.9%,108%,104%,106%,112%,95.8%,94.7%,113%,104%,114%,109%
CCCCCCCCCCCCCCCCCCOP(=O)([O-])OC1CC[N+](C)(C)CC1 [Perifosine] + CN(NC(=O)CC(=O)NN(C)C(=S)c1ccccc1)C(=S)c1ccccc1 [STA4783] (partner dose 0.006 µM),87.3%,43.1%,82.5%,96.2%,98.4%,80.1%,78.2%,106%,86.6%,102%,116%,48.5%,87.9%,89.2%,101%,104%,114%,93.2%,92.1%
Cn1sc(=O)n(Cc2ccccc2)c1=O + COc1cc2c(Oc3ccc4[nH]c(C)cc4c3F)ncnc2cc1OCCCN1CCCC1 [cediranib] (partner dose 0.4 µM),85.6%,82%,79.8%,132%,92.2%,114%,110%,156%,111%,106%,104%,113%,97.7%,90.5%,95.4%,74.6%,114%,73.5%,101%
CCCCCCCCCCCCCCCCCCOP(=O)([O-])OC1CC[N+](C)(C)CC1 [Perifosine] + Cc1ccc(NC(=O)c2cccc(N(C)C)c2)cc1NC(=O)c1ccc(O)cc1 [ZM336372] (partner dose 2 µM),114%,112%,119%,87.9%,83.7%,97.7%,90.2%,140%,89.1%,75.9%,104%,73.8%,94%,104%,106%,79.3%,116%,103%,98.5%
Cn1sc(=O)n(Cc2ccccc2)c1=O + O=C(Nc1cccc(Cl)c1)Nc1ncc(CCNc2ncnc3ccsc23)s1 [SNS314] (partner dose 0.0008 µM),90.3%,90.9%,65.3%,90.6%,109%,107%,95%,131%,90%,106%,100%,98.3%,101%,88.4%,112%,110%,89.8%,97.5%,82.5%
CCCCCCCCCCCCCCCCCCOP(=O)([O-])OC1CC[N+](C)(C)CC1 [Perifosine] + O=C(Nc1ccccc1)c1cc([N+](=O)[O-])ccc1Cl [GW9662] (partner dose 2 µM),118%,100%,100%,107%,106%,95.2%,98.6%,90.3%,111%,104%,101%,70.2%,79.2%,101%,94.5%,84.5%,94.5%,109%,83.4%
Cn1sc(=O)n(Cc2ccccc2)c1=O + COC(=O)c1sccc1S(=O)(=O)Nc1ccc(Nc2ccccc2)cc1OC [GSK0660] (partner dose 1 µM),109%,80.6%,92.5%,81.9%,96.5%,111%,105%,93.3%,105%,89.3%,101%,85.1%,95.1%,97.9%,98.8%,97%,100%,93.5%,97%
C[C@@H](N)c1ccc(C(=O)Nc2ccnc3[nH]ccc23)cc1 + O=S(=O)(c1ccccc1)N(CC(F)(F)F)c1ccc(C(O)(C(F)(F)F)C(F)(F)F)cc1 [T0901317] (partner dose 1.4 µM),94.4%,86.3%,87.8%,90.7%,91.1%,99.3%,87.2%,77.9%,60.2%,76.6%,95.5%,79.2%,40.3%,62.7%,91.1%,77.8%,67.9%,97%,68.4%
C[C@@H](N)c1ccc(C(=O)Nc2ccnc3[nH]ccc23)cc1 + Cc1cc([N+](=O)[O-])ccc1NS(=O)(=O)c1cc(Cl)ccc1Cl [FH535] (partner dose 1 µM),98.8%,109%,102%,100%,98.7%,91.6%,94.4%,86.2%,87.6%,68.6%,90.8%,64.7%,66.6%,74%,85.3%,112%,88%,67.5%,89.7%
Cn1sc(=O)n(Cc2ccccc2)c1=O + c1cc(-c2cnn3cc(-c4ccc(OCCN5CCCCC5)cc4)cnc23)ccn1 [Dorsomorphin] (partner dose 0.4 µM),103%,74.9%,103%,86.4%,99.5%,102%,94.7%,65.6%,93.1%,97.6%,107%,104%,111%,89.1%,111%,100%,101%,105%,89.8%
CCCCCCCCCCCCCCCCCCOP(=O)([O-])OC1CC[N+](C)(C)CC1 [Perifosine] + N#Cc1c(O)c2c(-c3ccc(-c4ccccc4O)cc3)csc2[nH]c1=O [A769662] (partner dose 2 µM),98%,94.5%,101%,83.6%,100%,94.4%,96.3%,112%,86.9%,99.8%,97.6%,82.2%,102%,97%,105%,77.1%,95.5%,115%,85.4%
